In all, about 48,000 compounds went through this assay and about 550 (1.1%) were called active. Another 4% or so got no clear call; they are omitted. Rule as the data show it: active = potency below about 15 µM; inconclusive = mostly about 16 µM to 33 µM; inactive = weaker than that. The list shows a part of the results.
Molecular target: Lysosomal acid glucosylceramidase (Homo sapiens) (UniProt P04062)
Assay: Glucocerebrosidase;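 also: the screen sought inhibitors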
Settings: purified enzyme, resorufin glucoside fluorescence (screen aimed at inhibitors), 20 min
How it was run: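 Wild-type enzyme at 0.2 nM final in 50mM citric acid/KH2PO4, 10mM sodium taurocholate, 0.01% tween-20, pH 5.9, with resorufin beta-D-glucopyranoside at 30 uM final. Compounds titrated, 20 min at RT, red fluorescence read; AC50 from titration.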
Potency is read from the fitted curve at half-maximal effect.

UniProt P04062, sequence (P04062 whole entry, looked up): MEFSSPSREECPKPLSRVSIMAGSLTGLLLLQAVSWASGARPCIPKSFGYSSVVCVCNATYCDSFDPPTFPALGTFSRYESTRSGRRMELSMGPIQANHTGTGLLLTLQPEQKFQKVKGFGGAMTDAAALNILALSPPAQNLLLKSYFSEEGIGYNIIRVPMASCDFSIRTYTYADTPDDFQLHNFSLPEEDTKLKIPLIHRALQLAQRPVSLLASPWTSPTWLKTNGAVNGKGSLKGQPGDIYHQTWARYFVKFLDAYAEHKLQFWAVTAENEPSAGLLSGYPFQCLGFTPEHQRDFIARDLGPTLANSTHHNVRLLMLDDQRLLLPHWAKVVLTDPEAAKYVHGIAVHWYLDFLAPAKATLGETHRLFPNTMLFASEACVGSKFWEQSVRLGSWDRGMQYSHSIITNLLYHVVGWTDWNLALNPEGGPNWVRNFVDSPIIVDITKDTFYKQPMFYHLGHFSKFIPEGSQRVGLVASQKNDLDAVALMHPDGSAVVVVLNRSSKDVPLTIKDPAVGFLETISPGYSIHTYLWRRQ

Potency, inactive:
Cc1ccc(-c2noc(CCC(=O)N3CCCc4ccccc43)n2)cc1 > 76.9 µM, CCOCCCNC(=O)C1CCN(c2cc(C)nc3c(-c4ccc(OC)c(OC)c4)c(C)nn23)CC1 > 76.9 µM, CCOCCCNc1ncc2c(n1)CC(c1ccc(C)cc1)CC2=O (stereo not given) > 76.9 µM, S=c1nc(C2CCCCC2)[nH][nH]1 > 76.9 µM, C=CCN1C(=O)C(O)(CC(=O)c2ccc(OC)cc2OC)c2cc(Br)ccc21 (stereo not given) > 76.9 µM, CCOc1ccccc1NC=C1C(=O)OC(C)(C)OC1=O > 76.9 µM, COc1ccc(NC(=O)C2C(=O)N(C)C3(C)CC2c2ccccc2O3)cc1 (stereo not given) > 76.9 µM, Cn1c(=O)c2c(nc(CN3CCC(C(N)=O)CC3)n2CCCc2ccccc2)n(C)c1=O > 76.9 µM, O=C1CC(C(=O)Nc2ccccc2)C2(CCCC2)O1 (stereo not given) > 76.9 µM, O=S(=O)(c1ccc2ccccc2c1)N1CCCOC1 > 76.9 µM, Cc1cc(N2CCN(c3nc4ccccc4s3)CC2)n2ncnc2n1 > 76.9 µM, COc1ccccc1N1CCN(CC(O)COc2ccc(S(=O)(=O)N3CCOCC3)cc2)CC1 (stereo not given) > 76.9 µM, Cc1ccc(-n2nc(C(=O)N3CCN(C)CC3)c3c4ccccc4n(C)c3c2=O)cc1 > 76.9 µM, CCOc1ccc(NC(=O)CS(=O)CC(=O)NC2CCCc3ccccc32)cc1 (stereo not given) > 76.9 µM, O=C(c1ccco1)N1CCN(CC(O)Cn2c3ccccc3c3ccccc32)CC1 (stereo not given) > 76.9 µM, Cc1cccc(N2C(N)=NC(N)=NC23CCCCC3)c1 > 76.9 µM, CNc1nc(C)nc(-n2nc(C)cc2C)n1 > 76.9 µM, CC(C)(C)OC(=O)N1CCC[C@H]1C(=O)NCC1CCC(C(=O)O)CC1 (stereo not given in full) > 76.9 µM, COc1cc(NS(=O)(=O)c2ccc(NC(=O)c3ccc(C)o3)cc2)nc(OC)n1 > 76.9 µM, CCc1nc(N)c(C#N)c(-c2ccccc2OC)c1C > 76.9 µM, CCOC(=O)CN1CC23C=CC(O2)C(C(=O)NCc2cccs2)C3C1=O (stereo not given) > 76.9 µM, CCCS(=O)(=O)N1CCN(Cc2ccncc2)CC1 > 76.9 µM, COc1ccc(CNC2CCCCC2C)c(OC)c1 (stereo not given) > 76.9 µM, Cc1ccc(C)c(NC(=O)CSc2nnc(CSc3nc(C)cc(C)n3)n2Cc2ccco2)c1 > 76.9 µM, CCC(c1nnnn1C1CCCC1)N1CCN(c2ccccc2)CC1 (stereo not given) > 76.9 µM, Cc1cc(C(=O)N2CCN(CCc3ccccc3)CC2)no1 > 76.9 µM, CC1CCN(S(=O)(=O)c2cccc(C(=O)Nc3nccs3)c2)CC1 > 76.9 µM, CC(NC(=O)c1noc2c1CCCC2)c1ccccc1 (stereo not given) > 76.9 µM, C=CCn1c(N2CCCCCC2)nc2c1c(=O)n(C)c(=O)n2C > 76.9 µM, COc1ccc(C2/C(=C(\O)c3ccc(OC)c(Cl)c3)C(=O)C(=O)N2CCN(C)C)cc1 (stereo not given) > 76.9 µM, O=C(COC(=O)CCC(=O)c1ccc2c(c1)OCCO2)NCc1ccc2c(c1)OCO2 > 76.9 µM, CCOc1cc(C2CC(=O)NC3=C2C(=O)C(C(=O)OC)C(C)C3)cc(Cl)c1O (stereo not given) > 76.9 µM, Cn1c(=O)c2ncn(CC(=O)Nc3ccc4oc(-c5cccc6ccccc56)nc4c3)c2n(C)c1=O > 76.9 µM, O=C(COc1ccccc1F)NC1CC1 > 76.9 µM, CC1CN(c2nc3c(c(=O)n(Cc4ccc(Cl)cc4)c(=O)n3C)n2C)CC(C)O1 (stereo not given) > 76.9 µM, Cc1ccc2nc(NC(=O)COC(=O)c3ccco3)sc2c1 > 76.9 µM, CCOC(=O)c1oc2ccc(Br)cc2c1CSc1nnc(C)s1 > 76.9 µM, COC(=O)c1c(C#N)c(N)nc2c1CCC2 > 76.9 µM, Cc1cc2nc(NC3=NCN(CCCN4CCOCC4)CN3)nc(C)c2cc1C > 76.9 µM, O=C(NCC1CCCO1)C1CCN(c2ccc(S(=O)(=O)N3CCCC3)cc2)CC1 (stereo not given) > 76.9 µM, O=C(CCn1c(=O)sc2ccccc21)NCc1cccs1 > 76.9 µM, CCn1ncc(CN2CCN(C(=O)Nc3ccccc3C(=O)OC)CC2)c1C > 76.9 µM, Cc1ccc(C)c(-n2c(SCC(=O)N3CCCC3)nnc2-c2ccccn2)c1 > 76.9 µM, Cc1ccccc1-c1nc(CN2CCC(C(=O)NCCCN3CCCC3)CC2)c(C)o1 > 76.9 µM, FC(F)(F)c1cc(-c2ccccc2)nc(N2CCCCCC2)n1 > 76.9 µM, C=CCn1c(SCC(=O)Nc2cc(C)c(Cl)cc2OC)nnc1-c1ccco1 > 76.9 µM, COC1(OC)N=C(N)C2(C#N)C(c3cccc(Oc4ccccc4)c3)C12C#N (stereo not given) > 76.9 µM, O=C(NCC1CCCO1)Nc1cccc(Cl)c1 (stereo not given) > 76.9 µM, CCOc1ccc(OCC)c(NC(=O)CN2CCN(c3cccc(C)c3)CC2)c1 > 76.9 µM, Cc1nc2c(C(=O)N3CCN(c4ccccn4)CC3)cnn2c(C)c1Cc1cccc(Cl)c1 > 76.9 µM, O=c1oc2ccccc2n1Cn1c(=O)oc2ccccc21 > 76.9 µM, CCC(C)C(NCc1cccc(C)c1)C(=O)O (stereo not given) > 76.9 µM, COc1ccc(C2C(C(N)=O)=C(C)Nc3ncnn32)cc1 (stereo not given) > 76.9 µM, CCOc1ccc(NC2=NCCC(=O)N2Cc2cccs2)cc1 > 76.9 µM, CC(=O)NCCn1c(SCC#N)nc2ccccc2c1=O > 76.9 µM, CCN(CC)CCCNc1oc(-c2ccc(OC)c(OC)c2)nc1C#N > 76.9 µM, O=C1NC(=O)[C@@H]2C3c4ccccc4C=CN3[C@H](C(=O)c3cccs3)[C@H]12 (stereo not given in full) > 76.9 µM, CC(c1ccccc1F)n1cc(C(=O)NCCc2ccco2)nn1 (stereo not given) > 76.9 µM, CCOC(=O)c1c(-c2ccc(C)o2)csc1NC(=O)CSc1nncs1 > 76.9 µM, CCN(CC(=O)Nc1c(C(=O)OC)[nH]c2ccc(C)cc12)c1ccc2c(c1)OCO2 > 76.9 µM, CCOC(=O)C(C)n1cnc2c(cnn2-c2ccc(Cl)cc2)c1=O (stereo not given) > 76.9 µM, Clc1ccc(OCc2nn3c(C4CCCCC4)nnc3s2)cc1 > 76.9 µM, CCOC(=O)N1CCC(NC(=O)C2CCN(S(=O)(=O)N3CCC(C)CC3)CC2)CC1 > 76.9 µM, O=C(OCCN1C(=O)c2ccccc2C1=O)c1cc(S(=O)(=O)N2CCOCC2)ccc1F > 76.9 µM, CC1(C)CC(=O)c2cc(OCC(=O)NCCCN3CCN(c4ccc(F)cc4)CC3)ccc2O1 > 76.9 µM, COc1cc(C2C(C(C)=O)=C(O)C(=O)N2CCc2ccc(OC)c(OC)c2)ccc1O (stereo not given) > 76.9 µM, CCNC(=O)c1nc[nH]c1C(=O)NCC > 76.9 µM, CCc1nc2sc3c(c2c(=O)n1N)CCC3 > 76.9 µM, Cc1cccc2cc(C#N)c(N3CCCC3)nc12 > 76.9 µM, CC(C)NC(=O)C1CCN(Cc2cnn(-c3ccccc3)c2-n2cccc2)CC1 > 76.9 µM, Cc1cc2ncn(S(=O)(=O)N3CCOCC3)c2cc1C > 76.9 µM, CS(=O)(=O)N(CC(=O)NCc1ccccn1)c1ccc2c(c1)OCCO2 > 76.9 µM, CCCC(=O)N1CCN(S(=O)(=O)c2cc(Cl)ccc2OC)CC1 > 76.9 µM, CCN(CC)c1nc2n(c(=S)n1)CCS2 > 76.9 µM, O=C(CN1CCC(C(=O)c2ccc3c(c2)OCCO3)CC1)NC1CCCC1 > 76.9 µM, Cc1ccccc1Nc1nn2c(=O)c3ccccc3nc2s1 > 76.9 µM, Cc1ccc(-n2c(SCc3ccc(C#N)cc3)nnc2-c2ccccn2)cc1 > 76.9 µM, O=C(NC1CCCCC1NC(=O)c1ccco1)c1ccco1 (stereo not given) > 76.9 µM, NC(=O)C1(N2CCCCC2)CCN(CC(=O)Nc2ccccc2-c2ccccc2)CC1 > 76.9 µM, CCOC(=O)CC(=O)CSc1nc2sc(C)cc2c(=O)n1Cc1ccco1 > 76.9 µM, COc1ccc(CN(C)CCc2ccccn2)cc1OC > 76.9 µM, CC(C)CNC(=O)C1C2C=CC(C2)C1C(=O)O (stereo not given) > 76.9 µM, Cc1cccc(N=C2NC(=O)CS2)c1C > 76.9 µM, Cc1ccc(S(=O)(=O)NCCC(=O)N2CCN(Cc3ccccc3)CC2)cc1 > 76.9 µM, CN(CCc1ccccn1)S(=O)(=O)c1ccc2c3c(cccc13)C(=O)N2 > 76.9 µM, COC(=O)C1=C(C)Nc2ncnn2C1c1ccccn1 (stereo not given) > 76.9 µM, O=C(O)CCCn1c(=O)[nH]c2ccccc2c1=O > 76.9 µM, O=c1[nH]c(Cc2ccccc2)nc2c1oc1ccccc12 > 76.9 µM, CCNC(=O)CC1C(=O)N(c2ccc(F)cc2)C(=O)N1Cc1ccc(OC)cc1 (stereo not given) > 76.9 µM, C=CCOc1c(Br)cc(CNn2nnnc2N)cc1OC > 76.9 µM

From PubChem BioAssay AID360 (National Center for Advancing Translational Sciences (NCATS), 2006)
